Assay results reported in PubChem BioAssay AID504466 (National Center for Advancing Translational Sciences (NCATS), 2011).
Among all 330,000 compounds or so, about 4,200 (1.3%) were called active. Inconclusive results, whose numbers are uncertain, are shown with a selection of clear calls. Calls follow the shape of the dose curve; as a rule, active = well fitted activation curve with a large enough effect; inconclusive = small, poorly fitted or top-dose-only effect; inactive = no such curve, though single readings can be large or run the other way. Potencies of inconclusive entries are doubtful fits and often do not repeat.

experiment: qHTS screen for small molecules that induce genotoxicity in human embryonic kidney (HEK293T) cells expressing luciferase-tagged ELG1; details: HEK293T ELG1-luciferase reporter, luminescence, 16 h; series mostly up to 46 µM; also: nearly all actives have a fitted effect of over 60% in size
Outline: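 Cells (2,000/well) expressing the ELG1-luciferase fusion are dosed by pin tool and kept 16 hr at 37 °C, 5% CO2. Signal comes from ONE-Glo luciferase reagent after 30 min at room temperature.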
Potency is read from the fitted curve at half-maximal effect; tags tell the direction and shape of the fitted curve.

Row | Structure (SMILES) | Potency
1 | CCCCOc1ccc(-c2cn3ccccc3n2)cc1[N+](=O)[O-] | inconclusive: 5.17 µM [activator, full curve, poor fit]
2 | COc1cccc(NC(=O)CNC(=O)c2ccccc2)c1 | inconclusive: 23.1 µM [activator, single point]
3 | O=C(NC1CCCC1)c1cc(-c2ccc(Cl)cc2Cl)on1 | active: 1.3 µM
4 | COC(=O)c1ccc(N=NNc2ccccc2)cc1 | inconclusive: 5.8 µM [activator, partial curve]
5 | Nc1c(C(=O)NCc2ccco2)sc2nc3c(cc12)C(=O)CCC3 | inconclusive: 16.4 µM [activator, partial curve, poor fit]
6 | Clc1ccc(OCc2nc(-c3ccccn3)no2)c(Br)c1 | active: 0.82 µM
7 | NC(=O)c1ccccc1N/C=C/C(=O)c1ccco1 | active: 5.17 µM
8 | Cc1ccnc(NC(=O)CNC(=O)COc2ccccc2)c1 | inconclusive: 18.3 µM [activator, partial curve]
9 | CCCCOc1ccc(N(CC(=O)NC2CCCCC2)C(=O)c2snc(C(N)=O)c2N)cc1 | inconclusive: 29.1 µM [activator, single point]
10 | COc1ccc(-c2noc(-c3ccc(Br)o3)n2)cc1OC | inconclusive: 23.1 µM [activator, partial curve]
11 | COc1ccc(NC(=O)c2scc(S(=O)(=O)C(C)C)c2N)cc1 | inconclusive: 6.51 µM [activator, partial curve]
12 | c1ccc(COc2ccc(OCCCn3cncn3)cc2)cc1 | active: 4.11 µM
13 | COC(=O)c1cccc(CSc2nc3ccccc3[nH]2)c1 | inconclusive: 20.6 µM [activator, partial curve]
14 | Cc1cc(Cl)c2oc(C(=O)NC3CCC(O)CC3)c(C)c2c1 (stereo unspecified) | inconclusive: 20.6 µM [activator, partial curve, poor fit]
15 | Cc1ccc(C(=O)Nc2ccc3c(c2)OCO3)o1 | active: 14.6 µM
16 | C=CCNc1nc2c(c(=O)n(C)c(=O)n2C)n1Cc1ccc(F)cc1 | active: 20.6 µM
17 | O=C(Nc1ccccc1C(=O)O)c1cccc(NC(=O)c2ccco2)c1 | inactive
18 | Clc1ccc2nc(CSc3nnc4ccccn34)cn2c1 | active: 8.2 µM
19 | CN1CCN(c2ccc(NC(=O)c3ccc([N+](=O)[O-])o3)cc2Cl)CC1 | inconclusive: 3.26 µM [activator, full curve, poor fit]
20 | O=C1CCC(C(=O)N2CCCCO2)CN1CCc1ccccc1 (stereo unspecified) | inconclusive: 23.1 µM [activator, single point]
21 | CC(=O)c1c(C)[nH]c(C(=O)Nc2ccc3c(c2)OCCO3)c1C | inconclusive: 4.11 µM [activator, partial curve]
22 | Cc1ccc(C#N)c(SCc2nnc(-c3ccc(Cl)cc3)o2)n1 | inconclusive: 0.517 µM [activator, partial curve, poor fit]
23 | Cc1c(C(=O)N/N=C/c2ccc(O)c(Br)c2)sc(N)c1C#N | inconclusive: 16.4 µM [activator, partial curve, poor fit]
24 | COc1ccc(-c2csc(Nc3ncccc3C)n2)cc1OC | inactive

Row | Structure (SMILES) | Potency
25 | CCOC(=O)c1ccc(CSc2nnc(N)s2)cc1 | active: 23.1 µM
26 | O=C1c2ccccc2C(=O)C1c1ccc(Br)cc1 | inconclusive: 11.6 µM [activator, partial curve]
27 | COc1cc(/C=C2\C(=O)N(CCC#N)N=C2C)ccc1OCC(=O)Nc1ccccc1 | inconclusive: 23.1 µM [activator, single point]
28 | O=C1c2ccccc2C(=O)N1CCc1csc(-c2ccccc2)n1 | inconclusive: 14.6 µM [activator, partial curve, poor fit]
29 | CCc1nnc(NC(=O)CSc2ccc(-c3ccccc3OC)nn2)s1 | inactive
30 | O=C(COC(=O)c1cccnc1Cl)Nc1nc(-c2ccccc2)cs1 | inconclusive: 20.6 µM [activator, partial curve, poor fit]
31 | COCCSc1nnc(NC(=O)c2ccco2)s1 | inconclusive: 23.1 µM [activator, partial curve, poor fit]
32 | Nc1nc(OCC2CCCCC2)c2[nH]cnc2n1 | inconclusive: 20.6 µM [activator, partial curve, poor fit]
33 | Cc1csc2ncc(C(=O)Nc3ccc4c(c3)OCCO4)c(=O)n12 | active: 2.31 µM
34 | Cc1ccc(NC(=O)N2CCCCCC2)cc1C | inconclusive: 13 µM [activator, partial curve]
35 | CCNC(=S)NNC(=O)c1cc(-c2cccc(OCC)c2)nc2ccccc12 | inconclusive: 23.1 µM [activator, partial curve, poor fit]
36 | COc1ccc(OC)c(Nc2cc(C)c3ccccc3n2)c1 | inactive
37 | COc1ccc2cc(-c3nc4ccccc4n3C)c(=O)oc2c1 | inconclusive: 7.31 µM [activator, partial curve]
38 | CCCCc1ccc(Nc2ncccc2C#N)cc1 | inconclusive: 9.2 µM [activator, partial curve]
39 | Cn1nccc1C(=O)OCC(=O)Nc1nc(-c2ccccc2)cs1 | inconclusive: 20.6 µM [activator, partial curve]
40 | CCOC(=O)CSc1nc2ccccc2c(=O)n1NC(=O)c1ccccc1 | inconclusive: 1.84 µM [activator, full curve]
41 | Cc1ccc(NCc2nc(SCC(=O)Nc3ccccc3)n[nH]2)cc1 | inactive
42 | O=C(CCc1ccccc1)Nc1ccc(Cl)cn1 | inconclusive: 20.6 µM [activator, partial curve, poor fit]
43 | C=CCn1c(SCC(=O)Nc2ccc(-c3nc4ccc(C)cc4s3)cc2)nnc1-c1ccccc1 | inconclusive: 8.2 µM [activator, partial curve]
44 | COc1ccc(Cn2c(O)c(C=Nc3ccc(OC)cc3)c3ccccc3c2=O)cc1 | inactive
45 | O=C(Nc1ccn(Cc2ccccc2)n1)c1ccc(F)cc1 | inconclusive: 9.2 µM [activator, partial curve]
46 | O=C(N/N=C/C1CCCCC1)c1ccccn1 | inconclusive: 20.6 µM [activator, single point]
47 | Cc1cc(-c2cc(N)n(-c3ccccc3)n2)c(C)n1C1CCCC1 | inconclusive: 16.4 µM [activator, partial curve]
48 | COC(=O)c1cc2c(=O)c3ccccc3oc2nc1C | inconclusive: 16.4 µM [activator, partial curve]

Row | Structure (SMILES) | Potency
49 | CC(C)(C)OC(=O)N1CCC(NC(=O)c2[nH]cnc2C(=O)Nc2ccon2)CC1 | inactive
50 | CCC(C)N(C(=O)COc1ccc(Cl)c2cccnc12)C1CCS(=O)(=O)C1 (stereo unspecified) | inconclusive: 5.17 µM [activator, partial curve, poor fit]
51 | O=C(CCc1ccccc1)NCC(=O)N/N=C/c1ccc(O)cc1O | inconclusive: 29.1 µM [activator, partial curve, poor fit]
52 | Cc1ccc(CNc2ccc3c(c2)ncn3C(C)C)cc1 | active: 9.2 µM
53 | Cc1cc(=O)oc2cc(NC(=O)c3cccc(S(C)(=O)=O)c3)ccc12 | inconclusive: 2.51 µM [activator, full curve, poor fit]
54 | CCOc1ccc(NC(=O)c2ccc(NC(=O)COC(=O)Cc3ccc(OC)cc3)cc2)cc1 | inconclusive: 25.9 µM [activator, single point]
55 | Fc1ccccc1C1CCN(Cc2nc(CC3CC3)no2)C1 (stereo unspecified) | inconclusive: 18.3 µM [activator, partial curve]
56 | CCn1c(-c2cccnc2Cl)nc2cc(Cl)c(Cl)cc21 | inactive
57 | Cc1coc(NC(=O)CSc2nc(-c3ccncc3)cc(C(F)(F)F)c2C#N)n1 | inconclusive: 29.1 µM [activator, partial curve, poor fit]
58 | O=C(Nc1ccc(CN2CCOCC2)cc1)c1ccc(Br)cc1 | inconclusive: 16.4 µM [activator, single point]
59 | Cc1nn(-c2ccccc2)c(Cl)c1C(=O)NCc1ccccc1F | inactive
60 | CCOC(=O)c1ccc(NCCOC)c([N+](=O)[O-])c1 | inconclusive: 20.6 µM [activator, single point]
61 | CCCSc1nnc(NC(=O)Nc2ccccc2OC)s1 | inconclusive: 20.6 µM [activator, partial curve, poor fit]
62 | CCn1nc(C)cc1C(=O)N1CCc2c([nH]c3ccccc23)C1c1cc(F)ccc1F (stereo unspecified) | inconclusive: 20.6 µM [activator, partial curve, poor fit]
63 | Cc1cc(C(=O)N2CC(C)CC(C)C2)c(C)o1 (stereo unspecified) | inactive
64 | Cc1cc(C(=O)Nc2sc3c(c2C#N)CCC3)no1 | active: 6.51 µM
65 | C=CCn1c2ccccc2c(=O)c2cc(C#Cc3ccccn3)ccc21 | inactive
66 | O=C(/C=C1\SC(=O)N(CC(=O)Nc2ccc(F)cc2)C1=O)Nc1ccc(Cl)cc1 | inconclusive: 18.4 µM [activator, partial curve, poor fit]
67 | O=C(/C=C/c1cccc2ccccc12)N1CCOCC1 | inconclusive: 23.1 µM [activator, partial curve, poor fit]
68 | Cc1c(NS(=O)(=O)c2cccc(C(=O)Nc3cccc(F)c3)c2)c(=O)n(-c2ccccc2)n1C | inactive
69 | Cc1ccc(N/N=C2\COC(C)(C)CC2=O)cc1 | inconclusive: 7.31 µM [activator, partial curve]
70 | CCCC1=C(C(=O)OCC)C(c2sccc2C)n2ncnc2N1 (stereo unspecified) | inactive
71 | O=C(NCc1ccc2c(c1)OCO2)C(=O)Nc1ccccc1 | inconclusive: 20.6 µM [activator, partial curve, poor fit]
